Data published in the antibiotic and cytotoxicity screens of Wong et al. (2023).
Some of the results follow.

Tested on: HSkMC (human skeletal muscle cells)
Assay: cytotoxicity call (relative viability < 0.9)
Conditions: 10 µM

SMILES	cytotoxicity call
C[C@@H]1CN([C@@H](C)CO)C(=O)c2cccc(NC(=O)C3CC3)c2O[C@H]1CN(C)Cc1ccc2c(c1)OCO2	inactive
COc1cccc(S(=O)(=O)N(C)C[C@@H]2Oc3c(NC(=O)Nc4cccc5ccccc45)cccc3C(=O)N([C@@H](C)CO)C[C@H]2C)c1	inactive
C[C@H](CO)N1C[C@H](C)[C@@H](CN(C)S(C)(=O)=O)Oc2ccc(NS(=O)(=O)c3ccc(Cl)cc3)cc2CC1=O	inactive
O=C1C(CCS(=O)c2ccccc2)C(=O)N(c2ccccc2)N1c1ccccc1 (stereo not given)	inactive
C[C@@H]1CN([C@@H](C)CO)C(=O)Cc2cc(NC(=O)CCC(F)(F)F)ccc2O[C@H]1CN(C)Cc1ccc(-c2ccccc2)cc1	active
N#Cc1ncccn1	inactive
COc1ccc(S(=O)(=O)Nc2cccc3c2O[C@H](CN(C)Cc2ccc(Oc4ccccc4)cc2)[C@H](C)CN([C@H](C)CO)C3=O)cc1	inactive
CO[C@H]1CN(C)C(=O)c2ccc(NC(=O)C3CC3)cc2OC[C@@H](C)N(C(=O)C2CCOCC2)C[C@@H]1C	inactive
CO[C@@H]1[C@H](O)[C@@H](CO)O[C@H]1n1ccc(N)nc1=O	inactive
C[C@H](CO)N1C[C@H](C)[C@H](CN(C)C(=O)Nc2ccc(C(F)(F)F)cc2)Oc2ncc(/C=C/c3ccccc3)cc2C1=O	inactive
COCCN1CC[C@@H](CO)C1	inactive
C[C@@H](N)CCCC(C)(C)O	inactive
COC(=O)c1ccc(C(=O)NN)cc1	inactive
C[C@H](CO)N1C[C@H](C)[C@H](CN(C)Cc2cccc(C(F)(F)F)c2)Oc2ncc(-c3cccc(F)c3)cc2C1=O	inactive
COc1ccc(S(=O)(=O)N(C)C[C@H]2Oc3cc(C4=CCCC4)ccc3S(=O)(=O)N([C@@H](C)CO)C[C@@H]2C)cc1	inactive
CCS(=O)(=O)N1CC[C@]2(CC1)CN([C@@H](CO)c1c2c2ccc(cc2n1C)OC)C(=O)Nc1c(noc1C)C	inactive
C=CCN(CCCC)C(=O)[C@H]1N(CCOCCO)C(=O)[C@H]2[C@H](C(=O)O)[C@@H]3C=C[C@@]21O3	inactive
COc1ccc(S(=O)(=O)N(C)C[C@@H]2OCCCC[C@H](C)Oc3ccc(NC(=O)Nc4ccc(C(F)(F)F)cc4)cc3C(=O)N([C@H](C)CO)C[C@H]2C)cc1	inactive
C[C@H]1CCCCO[C@H](CN(C)Cc2ccncc2)[C@@H](C)CN([C@@H](C)CO)C(=O)c2cc(NC(=O)Nc3ccc(F)cc3)ccc2O1	inactive
Cc1noc(C)c1NC(=O)N(C)C[C@@H]1Oc2ccc(NC(=O)Cn3cnnn3)cc2C(=O)N([C@H](C)CO)C[C@H]1C	inactive

SMILES	cytotoxicity call
C=CC[C@@H](CC(=O)NCCO)C(=O)N[C@H](COC(=O)[C@H](CC=C)CC(=O)OC(C)(C)C)Cc1c[nH]c2ccccc12	inactive
CC(C)NC(=O)Nc1ccc2c(c1)C(=O)N([C@H](C)CO)C[C@H](C)[C@H](CN(C)S(=O)(=O)c1cn(C)cn1)O2	inactive
C[C@H]1CN([C@@H](C)CO)C(=O)Cc2cc(NC(=O)c3ccncc3)ccc2O[C@H]1CN(C)S(=O)(=O)c1ccccc1	inactive
C[C@H]1CN([C@@H](C)CO)C(=O)Cc2cc(NC(=O)CCCCCC(=O)Nc3ccccc3N)ccc2O[C@@H]1CN(C)C(=O)Nc1ccc(F)cc1	inactive
COc1cccc(S(=O)(=O)N(C)C[C@@H]2OCc3cn(nn3)CCCC(=O)N([C@@H](C)CO)C[C@@H]2C)c1	inactive
C[C@@H](O)/C=C/c1cccc[n+]1C	inactive
COc1ccc(S(=O)(=O)N(C)C[C@@H]2OCCCC[C@H](C)Oc3ccc(NC(=O)Nc4ccc(F)cc4)cc3C(=O)N([C@@H](C)CO)C[C@H]2C)cc1	inactive
NS(=O)(=O)c1ccc(F)c(C(=O)O)c1	inactive
CO[C@@H]1CN(C)C(=O)c2ccc(NS(=O)(=O)c3cn(C)cn3)cc2OC[C@H](C)N(Cc2cccc(F)c2)C[C@@H]1C	inactive
C[C@H](CO)N1C[C@H](C)[C@H](CN(C)Cc2ccc(C(F)(F)F)cc2)Oc2ccc(NC(=O)NC3CCCCC3)cc2CC1=O	inactive
C[C@@H]1CN([C@@H](C)CO)S(=O)(=O)c2ccc(C#Cc3ccncc3)cc2O[C@H]1CN(C)S(=O)(=O)c1ccccc1	inactive
COc1ccc(S(=O)(=O)N[C@@H]2C=C[C@H](CC(=O)N3CCC(Cc4ccccc4)CC3)O[C@H]2CO)cc1	inactive
CCCC#Cc1cnc2c(c1)C(=O)N([C@@H](C)CO)C[C@@H](C)[C@@H](CN(C)S(=O)(=O)c1cn(C)cn1)O2	inactive
C[C@@H]1CCCCO[C@@H](CN(C)S(=O)(=O)c2cccs2)[C@H](C)CN([C@@H](C)CO)C(=O)c2cc(NS(=O)(=O)c3ccc(Cl)cc3)ccc2O1	inactive
COc1ccc(NC(=O)Nc2ccc3c(c2)C(=O)N([C@H](C)CO)C[C@@H](C)[C@@H](CN(C)CC2CCCCC2)OCCCC[C@H](C)O3)cc1	inactive
C[C@@H]1CCCCO[C@H](CN(C)S(=O)(=O)c2ccc(F)cc2)[C@H](C)CN([C@@H](C)CO)C(=O)c2cc(NC(=O)Nc3ccc4c(c3)OCO4)ccc2O1	inactive
O=C(C[C@@H]1C[C@H]2c3cc(NC(=O)NC4CCCC4)ccc3O[C@H]2[C@@H](CO)O1)NCCN1CCCCC1	inactive
O=C(C[C@H]1CC[C@H]2[C@@H](COC[C@@H](O)CN2C(=O)c2ccc3c(c2)OCO3)O1)NCCN1CCCC1	inactive
CC(C)(O/N=C(\C(=O)N[C@@H]1C(=O)N2C(C(=O)O)=C(C[N+]3(CCNC(=O)c4ccc(O)c(O)c4Cl)CCCC3)CS[C@H]12)c1csc(N)n1)C(=O)O	inactive
O=C(C[C@H]1C[C@@H]2c3cc(NC(=O)Cc4ccncc4)ccc3O[C@@H]2[C@H](CO)O1)NCCN1CCCCC1	inactive
